Experimental data published in PMC4475061.
Results are given in words; binding and its absence hold for the method and conditions named. For part of these data: In cells and extracts the contact can be indirect. Some binding calls cover weakened binding; strength is not graded here. For part of these data: Sequences can lack the tags named with a protein. Values belong to the binder of their own block, whether it stands above or below them.

Chains of the proteins cited; added tags and fusions are not shown.
UniProt Q9UQN3: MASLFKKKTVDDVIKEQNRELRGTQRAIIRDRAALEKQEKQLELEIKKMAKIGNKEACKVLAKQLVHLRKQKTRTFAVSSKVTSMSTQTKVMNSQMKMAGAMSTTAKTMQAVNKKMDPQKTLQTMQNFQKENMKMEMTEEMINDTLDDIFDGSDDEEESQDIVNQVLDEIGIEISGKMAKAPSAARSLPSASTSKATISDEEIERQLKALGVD

Experiments:
[1] = target: T1, One-strep-flag (OSF)-tagged ULK3, full-length (residues 1–472) (human) (UniProt Q6PHR2); assay: pull-down; lysates of singly transfected 293T cells mixed; OSF-ULK3 bound to streptactin sepharose overnight at 4°C; one wash with 350 mM NaCl, three with 150 mM NaCl; α-Myc blot
T1 sequence: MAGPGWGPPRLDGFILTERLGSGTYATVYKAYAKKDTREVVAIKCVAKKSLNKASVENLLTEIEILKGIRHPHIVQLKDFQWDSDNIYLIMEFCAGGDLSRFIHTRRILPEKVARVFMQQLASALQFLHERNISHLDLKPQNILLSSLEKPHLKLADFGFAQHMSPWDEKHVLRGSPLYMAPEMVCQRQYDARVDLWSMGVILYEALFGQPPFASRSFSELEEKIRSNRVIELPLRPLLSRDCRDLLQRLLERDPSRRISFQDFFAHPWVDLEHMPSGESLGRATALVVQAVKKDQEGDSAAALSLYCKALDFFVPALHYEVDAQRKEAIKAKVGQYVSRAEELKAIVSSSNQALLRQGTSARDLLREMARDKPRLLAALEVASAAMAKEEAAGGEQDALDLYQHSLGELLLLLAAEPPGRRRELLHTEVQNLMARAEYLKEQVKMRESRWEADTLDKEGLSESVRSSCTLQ

GST-ULK3 M434D (human) = target: T2, GST-ULK3 M434D (human) (UniProt Q6PHR2); assay: pull-down; 293T cells co-transfected with pCAGGS/GST fusions and HA- or YFP-tagged proteins; glutathione-sepharose 3 hr at 4°C; 150 mM NaCl, Triton X-100; Western blot
T2 sequence: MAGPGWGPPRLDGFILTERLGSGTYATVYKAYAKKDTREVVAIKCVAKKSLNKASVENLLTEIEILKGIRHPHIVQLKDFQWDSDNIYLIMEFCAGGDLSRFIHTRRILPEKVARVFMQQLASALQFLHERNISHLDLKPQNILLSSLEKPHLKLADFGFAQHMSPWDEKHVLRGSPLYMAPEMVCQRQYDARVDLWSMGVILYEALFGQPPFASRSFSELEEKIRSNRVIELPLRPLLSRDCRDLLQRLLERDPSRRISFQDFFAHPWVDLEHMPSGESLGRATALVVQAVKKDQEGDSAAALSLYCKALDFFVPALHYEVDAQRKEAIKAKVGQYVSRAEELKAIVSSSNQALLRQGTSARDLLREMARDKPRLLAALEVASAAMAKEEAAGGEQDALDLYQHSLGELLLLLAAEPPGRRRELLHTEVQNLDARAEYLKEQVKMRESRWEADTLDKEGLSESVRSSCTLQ

GST-ULK3 V338D (human) = target: T3, GST-ULK3 V338D (human) (UniProt Q6PHR2); assay: as above
T3 sequence: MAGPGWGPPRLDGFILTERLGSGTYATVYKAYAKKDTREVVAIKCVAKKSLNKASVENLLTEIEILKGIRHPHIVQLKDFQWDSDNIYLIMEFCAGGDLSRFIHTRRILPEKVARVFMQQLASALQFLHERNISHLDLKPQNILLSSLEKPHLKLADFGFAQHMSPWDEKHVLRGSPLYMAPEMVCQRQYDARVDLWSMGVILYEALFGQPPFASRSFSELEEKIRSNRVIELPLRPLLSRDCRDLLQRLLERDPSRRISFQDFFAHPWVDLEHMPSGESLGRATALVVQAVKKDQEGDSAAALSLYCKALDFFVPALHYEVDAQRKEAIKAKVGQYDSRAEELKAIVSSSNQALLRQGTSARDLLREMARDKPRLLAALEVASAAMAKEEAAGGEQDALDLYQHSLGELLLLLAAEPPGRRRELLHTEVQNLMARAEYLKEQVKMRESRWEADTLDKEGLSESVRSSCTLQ

GST-ULK3 WT (human) = target: T4, GST-ULK3 WT (human) (UniProt Q6PHR2); assay: as above
T4 sequence: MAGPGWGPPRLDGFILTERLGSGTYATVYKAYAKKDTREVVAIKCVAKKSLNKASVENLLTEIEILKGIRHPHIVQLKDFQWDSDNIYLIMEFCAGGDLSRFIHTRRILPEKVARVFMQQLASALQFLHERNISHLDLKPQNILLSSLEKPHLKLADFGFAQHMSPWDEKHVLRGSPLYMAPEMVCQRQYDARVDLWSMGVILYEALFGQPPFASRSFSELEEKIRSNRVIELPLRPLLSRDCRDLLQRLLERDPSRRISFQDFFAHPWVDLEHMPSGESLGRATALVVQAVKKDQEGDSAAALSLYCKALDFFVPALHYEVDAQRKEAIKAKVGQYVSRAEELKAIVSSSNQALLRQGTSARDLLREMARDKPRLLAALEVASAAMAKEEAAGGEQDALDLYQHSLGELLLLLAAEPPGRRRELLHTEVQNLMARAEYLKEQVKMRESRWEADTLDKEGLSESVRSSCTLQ

[2] = target: T5, CHMP2A fused to the Gal4 DNA-binding domain (human) (UniProt O43633); assay: two-hybrid; yeast Y190; VP16 activation domain fusions (pHB18) against Gal4 DNA-binding domain fusions (pGBKT7); β-galactosidase activity in yeast extracts
T5 sequence: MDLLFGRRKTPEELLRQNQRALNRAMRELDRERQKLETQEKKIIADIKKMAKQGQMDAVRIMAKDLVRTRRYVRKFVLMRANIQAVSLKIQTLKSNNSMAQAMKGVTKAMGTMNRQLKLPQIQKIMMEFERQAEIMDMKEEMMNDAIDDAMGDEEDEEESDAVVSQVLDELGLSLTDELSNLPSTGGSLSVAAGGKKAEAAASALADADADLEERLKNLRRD

[3] = target: T6, CHMP1A fused to the Gal4 DNA-binding domain (human) (UniProt Q9HD42); assay: as above
T6 sequence: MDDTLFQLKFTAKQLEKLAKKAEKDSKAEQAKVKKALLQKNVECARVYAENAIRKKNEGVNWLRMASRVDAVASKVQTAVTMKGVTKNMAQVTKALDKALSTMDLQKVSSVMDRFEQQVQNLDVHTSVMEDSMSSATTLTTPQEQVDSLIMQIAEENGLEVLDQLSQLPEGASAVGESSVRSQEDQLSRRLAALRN

HA-CHMP2A (human) = target: T7, HA-CHMP2A (human) (UniProt O43633); assay: co-IP; 293T cells expressing HA-ESCRT-III; α-HA and protein G-agarose, 4°C; endogenous ULK3 detected by α-ULK3 blot
T7 sequence: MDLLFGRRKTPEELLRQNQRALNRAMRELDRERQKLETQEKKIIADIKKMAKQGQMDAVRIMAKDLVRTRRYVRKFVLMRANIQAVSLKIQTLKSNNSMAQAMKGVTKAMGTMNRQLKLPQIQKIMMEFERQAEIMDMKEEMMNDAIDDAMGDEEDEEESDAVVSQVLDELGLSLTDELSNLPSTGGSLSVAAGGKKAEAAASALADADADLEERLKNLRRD

HA-CHMP1A (human) = target: T8, HA-CHMP1A (human) (UniProt Q9HD42); assay: as above
T8 sequence: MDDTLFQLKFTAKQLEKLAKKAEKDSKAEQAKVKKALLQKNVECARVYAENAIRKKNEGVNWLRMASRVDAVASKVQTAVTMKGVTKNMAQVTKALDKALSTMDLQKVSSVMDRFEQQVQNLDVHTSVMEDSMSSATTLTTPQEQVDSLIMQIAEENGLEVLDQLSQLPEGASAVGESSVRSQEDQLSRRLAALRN

HA-CHMP2B (human) = HA-CHMP2B (human) (UniProt Q9UQN3); assay: as above

B1: CHMP2A-Myc (protein, UniProt O43633 1-222)
chain: MDLLFGRRKTPEELLRQNQRALNRAMRELDRERQKLETQEKKIIADIKKMAKQGQMDAVRIMAKDLVRTRRYVRKFVLMRANIQAVSLKIQTLKSNNSMAQAMKGVTKAMGTMNRQLKLPQIQKIMMEFERQAEIMDMKEEMMNDAIDDAMGDEEDEEESDAVVSQVLDELGLSLTDELSNLPSTGGSLSVAAGGKKAEAAASALADADADLEERLKNLRRD
binding [1]: binds

B2: HA-CHMP1A (protein, UniProt Q9HD42 1-196)
chain: MDDTLFQLKFTAKQLEKLAKKAEKDSKAEQAKVKKALLQKNVECARVYAENAIRKKNEGVNWLRMASRVDAVASKVQTAVTMKGVTKNMAQVTKALDKALSTMDLQKVSSVMDRFEQQVQNLDVHTSVMEDSMSSATTLTTPQEQVDSLIMQIAEENGLEVLDQLSQLPEGASAVGESSVRSQEDQLSRRLAALRN
binding (GST-ULK3 M434D (human)): binds | binding (GST-ULK3 V338D (human)): binds | binding (GST-ULK3 WT (human)): binds

B3: CHMP1A-Myc (protein, UniProt Q9HD42 1-196)
chain: MDDTLFQLKFTAKQLEKLAKKAEKDSKAEQAKVKKALLQKNVECARVYAENAIRKKNEGVNWLRMASRVDAVASKVQTAVTMKGVTKNMAQVTKALDKALSTMDLQKVSSVMDRFEQQVQNLDVHTSVMEDSMSSATTLTTPQEQVDSLIMQIAEENGLEVLDQLSQLPEGASAVGESSVRSQEDQLSRRLAALRN
binding [1]: binds

B5: ULK3 M434D fused to the VP16 activation domain (enzyme, UniProt Q6PHR2 1-472)
chain: MAGPGWGPPRLDGFILTERLGSGTYATVYKAYAKKDTREVVAIKCVAKKSLNKASVENLLTEIEILKGIRHPHIVQLKDFQWDSDNIYLIMEFCAGGDLSRFIHTRRILPEKVARVFMQQLASALQFLHERNISHLDLKPQNILLSSLEKPHLKLADFGFAQHMSPWDEKHVLRGSPLYMAPEMVCQRQYDARVDLWSMGVILYEALFGQPPFASRSFSELEEKIRSNRVIELPLRPLLSRDCRDLLQRLLERDPSRRISFQDFFAHPWVDLEHMPSGESLGRATALVVQAVKKDQEGDSAAALSLYCKALDFFVPALHYEVDAQRKEAIKAKVGQYVSRAEELKAIVSSSNQALLRQGTSARDLLREMARDKPRLLAALEVASAAMAKEEAAGGEQDALDLYQHSLGELLLLLAAEPPGRRRELLHTEVQNLDARAEYLKEQVKMRESRWEADTLDKEGLSESVRSSCTLQ
binding [3]: binds

Now from value to binder:

binding [2]: binds | binding [3]: binds
B4: ULK3 fused to the VP16 activation domain (enzyme, UniProt Q6PHR2 1-472)
chain: MAGPGWGPPRLDGFILTERLGSGTYATVYKAYAKKDTREVVAIKCVAKKSLNKASVENLLTEIEILKGIRHPHIVQLKDFQWDSDNIYLIMEFCAGGDLSRFIHTRRILPEKVARVFMQQLASALQFLHERNISHLDLKPQNILLSSLEKPHLKLADFGFAQHMSPWDEKHVLRGSPLYMAPEMVCQRQYDARVDLWSMGVILYEALFGQPPFASRSFSELEEKIRSNRVIELPLRPLLSRDCRDLLQRLLERDPSRRISFQDFFAHPWVDLEHMPSGESLGRATALVVQAVKKDQEGDSAAALSLYCKALDFFVPALHYEVDAQRKEAIKAKVGQYVSRAEELKAIVSSSNQALLRQGTSARDLLREMARDKPRLLAALEVASAAMAKEEAAGGEQDALDLYQHSLGELLLLLAAEPPGRRRELLHTEVQNLMARAEYLKEQVKMRESRWEADTLDKEGLSESVRSSCTLQ

binding (HA-CHMP2A (human)): binds | binding (HA-CHMP1A (human)): binds | binding (HA-CHMP2B (human)): no binding
B6: endogenous ULK3 (enzyme, UniProt Q6PHR2 1-472)
chain: MAGPGWGPPRLDGFILTERLGSGTYATVYKAYAKKDTREVVAIKCVAKKSLNKASVENLLTEIEILKGIRHPHIVQLKDFQWDSDNIYLIMEFCAGGDLSRFIHTRRILPEKVARVFMQQLASALQFLHERNISHLDLKPQNILLSSLEKPHLKLADFGFAQHMSPWDEKHVLRGSPLYMAPEMVCQRQYDARVDLWSMGVILYEALFGQPPFASRSFSELEEKIRSNRVIELPLRPLLSRDCRDLLQRLLERDPSRRISFQDFFAHPWVDLEHMPSGESLGRATALVVQAVKKDQEGDSAAALSLYCKALDFFVPALHYEVDAQRKEAIKAKVGQYVSRAEELKAIVSSSNQALLRQGTSARDLLREMARDKPRLLAALEVASAAMAKEEAAGGEQDALDLYQHSLGELLLLLAAEPPGRRRELLHTEVQNLMARAEYLKEQVKMRESRWEADTLDKEGLSESVRSSCTLQ

binding [3]: binds
B7: ULK3 V338D fused to the VP16 activation domain (enzyme, UniProt Q6PHR2 1-472)
chain: MAGPGWGPPRLDGFILTERLGSGTYATVYKAYAKKDTREVVAIKCVAKKSLNKASVENLLTEIEILKGIRHPHIVQLKDFQWDSDNIYLIMEFCAGGDLSRFIHTRRILPEKVARVFMQQLASALQFLHERNISHLDLKPQNILLSSLEKPHLKLADFGFAQHMSPWDEKHVLRGSPLYMAPEMVCQRQYDARVDLWSMGVILYEALFGQPPFASRSFSELEEKIRSNRVIELPLRPLLSRDCRDLLQRLLERDPSRRISFQDFFAHPWVDLEHMPSGESLGRATALVVQAVKKDQEGDSAAALSLYCKALDFFVPALHYEVDAQRKEAIKAKVGQYDSRAEELKAIVSSSNQALLRQGTSARDLLREMARDKPRLLAALEVASAAMAKEEAAGGEQDALDLYQHSLGELLLLLAAEPPGRRRELLHTEVQNLMARAEYLKEQVKMRESRWEADTLDKEGLSESVRSSCTLQ
